According to the supplement of paper PMC7826260:
Some of the results follow. Cleavage of a single-stranded DNA pool by Rep nickase domains was read by sequencing (3 µM enzyme, 1 h, 37 °C); shown is the middle of each 90-letter strand. A value is the log2 ratio of uncut reads to the pool without enzyme; the lower, the more was cut; hits are not called. The scaling is to total reads, so uncut sequences can rise above 0 when many others are cut.

Experiments:
Experiment in all cases: uncleaved DNA left, log2 of reads against the no-enzyme library (log2 ratio); higher = less cleavage (more negative = more Rep cleavage of the k-mer); sequences stand for … in CTCGTCCG…ACCGGAGA
[1] = tested on: T1, Rep nickase domain of Muscovy duck circovirus
T1 sequence (residues 1-111 of Rep, tag left off): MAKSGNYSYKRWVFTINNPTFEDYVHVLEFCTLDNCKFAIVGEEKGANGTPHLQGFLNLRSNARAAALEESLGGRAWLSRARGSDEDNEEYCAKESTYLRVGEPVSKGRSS
Description: (§1)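 A pool of 90-nt single-stranded DNAs with seven random bases just before the constant AC of the nick site (name = the seven bases) was cut by 3 µM recombinant His6-SUMO-tagged Rep nickase domain (300 nM DNA, 50 mM HEPES pH 8.0, 50 mM NaCl, 1 mM MnCl2, 1 h, 37 °C, three replicates). Uncut DNA was amplified and sequenced.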

[2] = tested on: T2, Rep nickase domain of banana bunchy top virus
T2 sequence (residues 1-94 of Rep, tag left off): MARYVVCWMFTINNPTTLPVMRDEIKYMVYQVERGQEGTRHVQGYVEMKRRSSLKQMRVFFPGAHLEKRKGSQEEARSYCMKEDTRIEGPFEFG
Description: as §1

[3] = tested on: T3, Rep nickase domain of cabbage leaf curl virus
T3 sequence (residues 1-116 of Rep, tag left off): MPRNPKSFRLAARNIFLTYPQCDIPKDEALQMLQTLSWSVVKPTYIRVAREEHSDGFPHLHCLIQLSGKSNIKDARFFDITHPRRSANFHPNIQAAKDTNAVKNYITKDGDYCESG
Description: as §1

[4] = tested on: T4, Rep nickase domain of chickpea chlorotic dwarf virus
T4 sequence (residues 1-124 of Rep, tag left off): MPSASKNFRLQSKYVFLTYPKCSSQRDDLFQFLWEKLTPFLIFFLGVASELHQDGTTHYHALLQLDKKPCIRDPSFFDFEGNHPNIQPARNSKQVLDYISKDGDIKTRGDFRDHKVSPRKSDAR
Description: as §1

[5] = tested on: T5, Rep nickase domain of faba bean necrotic yellows virus
T5 sequence (residues 1-98 of Rep, tag left off): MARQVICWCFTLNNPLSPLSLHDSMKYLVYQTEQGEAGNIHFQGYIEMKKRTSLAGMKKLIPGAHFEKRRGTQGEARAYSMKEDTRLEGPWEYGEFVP
Description: as §1

[6] = tested on: T6, Rep nickase domain of maize striate mosaic virus
T6 sequence (residues 1-117 of Rep, tag left off): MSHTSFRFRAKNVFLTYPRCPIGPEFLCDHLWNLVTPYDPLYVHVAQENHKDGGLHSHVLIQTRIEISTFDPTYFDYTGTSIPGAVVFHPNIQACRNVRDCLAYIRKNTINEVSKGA
Description: as §1

[7] = tested on: T7, Rep nickase domain of porcine circovirus 2
T7 sequence (residues 2-116 of Rep, tag left off): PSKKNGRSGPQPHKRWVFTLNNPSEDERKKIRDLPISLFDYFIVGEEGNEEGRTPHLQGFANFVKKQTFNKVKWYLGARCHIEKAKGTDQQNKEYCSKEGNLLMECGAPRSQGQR
Description: as §1

[8] = tested on: T8, Rep nickase domain of tomato golden mosaic virus
T8 sequence (residues 1-124 of Rep, tag left off): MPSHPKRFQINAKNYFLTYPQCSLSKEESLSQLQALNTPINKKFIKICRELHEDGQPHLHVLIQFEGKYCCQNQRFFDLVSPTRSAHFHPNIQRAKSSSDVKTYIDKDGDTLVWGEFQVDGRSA
Description: as §1

[9] = tested on: T9, Rep nickase domain of tomato yellow leaf curl virus
T9 sequence (residues 1-136 of Rep, tag left off): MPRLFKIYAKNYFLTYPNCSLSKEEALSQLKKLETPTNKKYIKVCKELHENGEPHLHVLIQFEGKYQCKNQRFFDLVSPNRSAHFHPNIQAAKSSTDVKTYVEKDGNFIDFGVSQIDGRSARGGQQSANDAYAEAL
Description: as §1

[10] = tested on: T10, Rep nickase domain of wheat dwarf virus
T10 sequence (residues 1-137 of Rep, tag left off): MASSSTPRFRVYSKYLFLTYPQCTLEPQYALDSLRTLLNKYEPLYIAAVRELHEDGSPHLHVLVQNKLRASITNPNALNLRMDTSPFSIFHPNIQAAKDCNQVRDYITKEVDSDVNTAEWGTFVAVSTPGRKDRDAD
Description: as §1

Sequence | uncleaved DNA left (log2) [1] | uncleaved DNA left (log2) [2] | uncleaved DNA left (log2) [3] | uncleaved DNA left (log2) [4] | uncleaved DNA left (log2) [5] | uncleaved DNA left (log2) [6] | uncleaved DNA left (log2) [7] | uncleaved DNA left (log2) [8] | uncleaved DNA left (log2) [9] | uncleaved DNA left (log2) [10]
AGGGGAC | -0.0629 | -0.00955 | 0.702 | 1.52 | -0.0718 | 2.1 | 0.205 | 0.0661 | -0.042 | 0.113
GCCCTTG | 0.0785 | -0.0462 | -0.203 | -0.461 | 0.0158 | -0.467 | 0.114 | 0.0804 | 0.000527 | -0.0225
TCCGCAG | -0.124 | -0.0379 | -0.432 | -0.59 | -0.102 | -0.737 | -0.0296 | -0.0636 | -0.0962 | -0.236
TCCCGAC | 0.0151 | -0.0631 | 0.0188 | -0.0705 | -0.14 | -0.366 | -0.151 | -0.0418 | -0.158 | -0.111
TCGTAGT | -1.14 | -0.0582 | -0.131 | -0.569 | -0.521 | -0.525 | -3.62 | -0.12 | 0.0945 | -0.141
CGGTAAT | -0.626 | -0.113 | 0.317 | 0.233 | -0.235 | 0.969 | -2.58 | -0.0566 | -0.015 | 0.0677
GCGCGTG | 0.118 | 0.111 | -0.104 | 0.185 | 0.19 | 0.249 | 0.198 | 0.208 | -0.0706 | -0.0228
AATTCCG | -0.0283 | -0.0057 | -0.732 | 0.154 | -0.0273 | -0.943 | 0.0247 | -0.165 | -0.00472 | -0.0948
TTCCGTG | 0.0352 | 0.123 | 0.333 | -0.00174 | 0.0471 | -0.0519 | 0.0961 | -0.0513 | 0.174 | 0.127
CTGACAA | 0.0371 | -0.0663 | 0.0419 | 0.251 | 0.167 | -0.00805 | 0.0151 | -0.0749 | -0.0455 | 0.0476
TTGTTAT | -0.383 | -0.0105 | 0.244 | -0.422 | -0.0881 | -0.187 | -2.54 | -0.00536 | 0.14 | 0.132
TGCGATG | -0.106 | -0.044 | -0.124 | 0.582 | 0.0218 | 1.59 | -0.0309 | 0.0132 | -0.0402 | 0.0901
GTTGTCA | 0.063 | 0.0768 | 0.346 | 0.905 | 0.0394 | 1.77 | 0.0852 | 0.173 | 0.0442 | 0.102
CCGATAG | -0.0114 | -0.125 | -0.727 | -0.565 | -0.0109 | -0.971 | 0.0713 | 0.0695 | -0.0591 | -0.119
CACTGGC | 0.0946 | -0.0231 | -0.297 | -0.234 | 0.033 | -0.826 | 0.0688 | 0.0251 | 0.0505 | 0.00562
AGGAGCT | 0.0623 | 0.109 | 0.201 | 0.411 | 0.0096 | 0.332 | 0.113 | 0.0397 | -0.0613 | -0.0049
AAGGCAT | 0.0893 | 0.161 | 0.396 | 1.66 | -0.0737 | 1.83 | 0.135 | 0.0393 | -0.104 | 0.107
CCAGTTT | -0.0782 | -0.0555 | -0.278 | -1.94 | -0.0519 | -0.482 | -0.282 | -0.22 | -0.108 | -0.223
ACTTCTA | -0.133 | -0.0854 | -0.188 | -1.65 | 0.148 | -0.665 | -0.121 | 0.0387 | -0.0173 | 0.0172
GTAGCAG | 0.0108 | -0.0714 | -0.0207 | -0.0687 | -0.0344 | -0.437 | 0.109 | 0.062 | 0.0287 | -0.00572
CTGCTGA | 0.123 | 0.191 | 0.131 | 0.674 | 0.0314 | 0.438 | 0.185 | 0.11 | -0.0276 | 0.0798
GCCGAAG | 0.106 | -0.0298 | -0.211 | -0.19 | 0.114 | -0.8 | 0.183 | 0.0799 | -0.0276 | -0.15
GGGGGTA | -0.0502 | 0.132 | 0.763 | 1.74 | -0.0436 | 2.18 | 0.231 | 0.119 | -0.0414 | 0.12
TCATGGT | -0.299 | -0.189 | -0.631 | -1.35 | -0.162 | 0.692 | -0.566 | -0.147 | -0.172 | -0.179
GGTGTAC | 0.0806 | 0.125 | 0.656 | 1.45 | -0.0378 | 2.11 | 0.262 | 0.014 | 0.108 | 0.132
GATTGAT | -1.28 | -1.06 | -0.0873 | 0.181 | -0.137 | 0.262 | -1.54 | 0.0351 | -0.0664 | -0.0775
CTAGGGC | -0.0893 | 0.0582 | 0.0941 | 0.446 | 0.0396 | -0.139 | -0.0561 | -0.0639 | -0.00579 | 0.067
CGCTTAG | 0.17 | -0.0263 | -0.362 | -0.173 | 0.171 | -0.925 | 0.251 | 0.143 | 0.156 | 0.127
ACAGTAA | 0.0574 | -0.00811 | -0.116 | -0.267 | -0.00692 | -0.585 | 0.0333 | 0.159 | 0.0101 | -0.0244
CCAGCTC | -0.0874 | 0.0846 | 0.107 | -0.192 | -0.07 | -0.241 | 0.0393 | 0.0525 | -0.0444 | -0.115
